In all, about 33,000 sequences were measured (“E-score (-0.5 to 0.5)”: median about -0.053, highest 2% from about 0.37 on). The list shows a part of the results.
These sequences were tested against Hap1 (UniProt P0CE41) (assay: PBM E-score (8-mer binding enrichment) (E-score (-0.5 to 0.5)); higher = stronger / more preferred TF binding; most listed sequences are background and not binding sites). Details: protein concentration: 200 nM; construct: GST-DNA-binding domain.
Protocol: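 Universal 'all 10-mer' protein binding microarrays (Agilent AMADID 015681) probed with GST-tagged S. cerevisiae TFs (full-length or DBD) made by in vitro transcription/translation (PURExpress), about 100-200 nM. Bound TF was detected with fluorescent anti-GST. Each ungapped 8-mer (which stands for itself and its reverse complement) is scored by the PBM enrichment score (E-score), a modified Wilcoxon-Mann-Whitney statistic from -0.5 to +0.5, computed with the Universal PBM Analysis Suite. Scale: above 0.35 generally sequence-specific binding.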

Chain of UniProt P0CE41 (P0CE41 whole entry, the tested form may be a part): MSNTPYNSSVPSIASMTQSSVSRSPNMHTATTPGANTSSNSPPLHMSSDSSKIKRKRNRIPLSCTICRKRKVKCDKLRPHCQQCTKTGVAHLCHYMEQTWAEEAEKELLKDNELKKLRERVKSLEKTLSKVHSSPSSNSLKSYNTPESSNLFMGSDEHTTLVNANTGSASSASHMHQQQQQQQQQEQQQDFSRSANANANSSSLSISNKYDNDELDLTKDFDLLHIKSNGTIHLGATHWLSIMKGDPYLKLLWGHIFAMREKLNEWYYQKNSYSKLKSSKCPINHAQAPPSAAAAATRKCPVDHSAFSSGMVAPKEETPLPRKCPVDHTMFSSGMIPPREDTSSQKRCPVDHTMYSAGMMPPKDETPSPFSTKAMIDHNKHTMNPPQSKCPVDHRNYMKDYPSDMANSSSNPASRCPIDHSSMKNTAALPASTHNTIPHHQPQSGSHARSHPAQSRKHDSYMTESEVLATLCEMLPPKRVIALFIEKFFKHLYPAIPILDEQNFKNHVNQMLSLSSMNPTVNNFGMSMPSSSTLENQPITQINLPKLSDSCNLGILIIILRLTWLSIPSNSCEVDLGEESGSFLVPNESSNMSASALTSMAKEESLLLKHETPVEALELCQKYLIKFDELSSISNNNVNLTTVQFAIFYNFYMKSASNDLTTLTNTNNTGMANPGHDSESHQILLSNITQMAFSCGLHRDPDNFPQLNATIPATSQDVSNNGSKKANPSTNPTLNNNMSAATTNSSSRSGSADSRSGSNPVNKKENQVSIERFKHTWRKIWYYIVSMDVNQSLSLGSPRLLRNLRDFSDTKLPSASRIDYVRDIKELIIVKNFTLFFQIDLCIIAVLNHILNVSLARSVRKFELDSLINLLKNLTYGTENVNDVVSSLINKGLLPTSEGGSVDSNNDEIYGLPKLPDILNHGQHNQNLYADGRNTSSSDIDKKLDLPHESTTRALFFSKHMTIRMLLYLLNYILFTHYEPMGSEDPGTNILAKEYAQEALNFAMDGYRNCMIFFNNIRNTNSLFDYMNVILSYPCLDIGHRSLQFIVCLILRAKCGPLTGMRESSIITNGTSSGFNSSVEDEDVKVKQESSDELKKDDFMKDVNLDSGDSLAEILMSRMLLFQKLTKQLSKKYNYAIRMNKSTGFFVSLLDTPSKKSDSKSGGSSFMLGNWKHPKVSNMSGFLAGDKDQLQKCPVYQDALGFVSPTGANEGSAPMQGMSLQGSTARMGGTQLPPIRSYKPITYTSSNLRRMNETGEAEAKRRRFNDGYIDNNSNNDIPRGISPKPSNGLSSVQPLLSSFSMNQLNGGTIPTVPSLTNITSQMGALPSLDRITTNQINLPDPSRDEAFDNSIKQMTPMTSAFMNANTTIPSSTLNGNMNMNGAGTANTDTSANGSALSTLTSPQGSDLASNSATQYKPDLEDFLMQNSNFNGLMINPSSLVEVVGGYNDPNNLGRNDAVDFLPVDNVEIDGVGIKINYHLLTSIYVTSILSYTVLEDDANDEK

| Sequence | PBM E-score |
| --- | --- |
| CACGTTGA | -0.208 |
| GGTTCGGA | 0.373 |
| AGCAAACG | 0.0461 |
| ATGAGCGA | 0.0994 |
| GTTTAGCA | 0.0534 |
| ATTTAACC | 0.225 |
| TCTACAGA | -0.163 |
| ATGGGATG | -0.0363 |
| ACCTAAGG | -0.194 |
| ATTTTCGC | 0.0139 |
| CTGGCACA | -0.236 |
| CAAATGAC | -0.121 |
| GCGTAGTA | -0.0115 |
| AATAGCAC | -0.0797 |
| GCCAGGCC | 0.0326 |
| AACTCAAC | 0.013 |
| GTCATCAA | -0.222 |
| GGGCTTTA | 0.132 |
| CACTTGTC | -0.00073 |
| ACGCTGAA | -0.0377 |
| GTCCAACA | -0.0782 |
| CTTATGGC | -0.11 |
| AAGACCGT | 0.0453 |
| CTAGCCGA | 0.25 |
| GCGCCTCC | -0.0192 |

| Sequence | PBM E-score |
| --- | --- |
| TAACTCCA | 0.204 |
| AGTCCCGA | 0.225 |
| CTCGCTGC | -0.0701 |
| AGTTAGGC | -0.113 |
| AACGTCAT | -0.0725 |
| AGCATCAA | -0.191 |
| ACGTCCGG | 0.411 |
| GGCAATAC | 0.239 |
| CGAGACCG | 0.279 |
| GCCTTCGA | -0.243 |
| ACCATGGC | -0.0677 |
| CTTATCCA | -0.0982 |
| CCATCCCG | 0.0745 |
| AAAAGATA | -0.00353 |
| AACTCCTG | -0.0455 |
| AACCGATA | 0.421 |
| TATCTCAA | -0.0851 |
| GATTTGCA | 0.00669 |
| ATCAACAC | -0.154 |
| CTTCATAC | -0.0879 |
| ACATCTAG | -0.249 |
| TCTAGACA | -0.23 |
| CCGTGCGA | 0.214 |
| CTGAAAGA | -0.185 |
| AGTGGAAA | -0.0732 |

| Sequence | PBM E-score |
| --- | --- |
| AAGCAGAC | -0.107 |
| ACGTAAGA | -0.281 |
| TAATTCAA | -0.0714 |
| GACTCGAA | -0.0617 |
| GCGAGTCC | 0.122 |
| CTGTCGCC | -0.0019 |
| ATCGGGCC | 0.324 |
| GAGCTCTA | -0.0284 |
| CGCCTGGA | -0.138 |
| AATCAACA | -0.0833 |
| CTTGAGCC | 0.00759 |
| ATAGGCAT | -0.0698 |
| CTGTCAAA | -0.317 |
| GTCACACA | -0.119 |
| ACTACTAT | -0.0167 |
| GATGGCGC | -0.0122 |
| CGTGGATC | -0.0375 |
| CAAATTGG | -0.0778 |
| AAATGGGA | -0.155 |
| GCGAAAAA | 0.105 |
| AGACGGCC | 0.073 |
| TCGATAAA | 0.146 |
| CACTTTGG | -0.0975 |
| AGACCTAC | -0.0878 |
| CATCTAAG | -0.0624 |

| Sequence | PBM E-score |
| --- | --- |
| AGGGGTTA | -0.0702 |
| GCCTTCAC | -0.15 |
| GGCTTGAA | -0.0379 |
| CCAACCCG | 0.138 |
| CCTAGCTC | -0.0128 |
| TAATCGAA | -0.085 |
| GGTTTTAA | 0.334 |
| AGACCCTG | -0.282 |
| AACATGCA | -0.198 |
| CCACTGCA | -0.0925 |
| CAAGATGG | -0.211 |
| GTGCTTTA | -0.0684 |
| CACACATG | -0.0761 |
| GAGAGCGA | 0.0311 |
| AATTCGTA | -0.112 |
| CCTTTGCC | -0.136 |
| GGTGTGAA | -0.00686 |
| CGTTGCAG | -0.238 |
| ACATTAGA | -0.197 |
| CCTAATAG | -0.159 |
| ACACCGTG | 0.0547 |
| AATGGCGA | 0.186 |
| CCGGTTGC | 0.294 |
| ATATAGAG | -0.134 |
| ACCTCCTA | -0.192 |

| Sequence | PBM E-score |
| --- | --- |
| CAGAATCG | 0.0556 |
| CGACATAC | -0.0516 |
| AGTTGGAT | -0.047 |
| GCAGGATA | -0.141 |
| AGTTACAC | -0.0432 |
| GACGGCAC | -0.122 |
| GTAAAGTA | -0.159 |
| CAAGTGTC | -0.197 |
| AACCAGAG | -0.12 |
| CCAATGTA | -0.0843 |
| GCACGACC | 0.0214 |
| ATTCCCTC | -0.083 |
| AAGCGGGT | 0.151 |
| CCTTAAGA | -0.164 |
| GAACAGAA | -0.00224 |
| CGCAGGTA | 0.149 |
| AGCCGGAC | 0.409 |
| GGGGAGAA | 0.0192 |
| CGCCCCCC | -0.128 |
| CGTTACTC | -0.043 |
| CCGGTTAA | 0.344 |
| TATCATGA | -0.305 |
| GACCCGAC | 0.313 |
| ACCTTATA | -0.0869 |
| CCAAACGG | 0.157 |

| Sequence | PBM E-score |
| --- | --- |
| ACCTAGAA | -0.145 |
| ATTTATAC | 0.152 |
| AATTGGCC | -0.0467 |
| GCCTTCCA | -0.186 |
| CTCGGCCA | 0.334 |
| ACGAGTAA | -0.00105 |
| GCTCAGTA | -0.239 |
| CTTATAAC | 0.0543 |
| ATACAGCG | -0.074 |
| AAAGTTTG | -0.0236 |
| CTACCCAC | -0.148 |
| ACCTACTG | -0.144 |
| CTGCGAGA | -0.215 |
| GATCACCC | -0.0244 |
| CGTGCACC | -0.0161 |
| ACTGCTGG | -0.227 |
| ACAATTCA | -0.229 |
| TCCTGTAA | -0.232 |
| ATGTATTC | 0.196 |
| ACACCTGC | -0.0479 |
| CCCGGGCG | 0.383 |
| ACGTACTG | -0.144 |
| CACGTAGG | -0.208 |
| CGGAATTC | 0.319 |
| ACCGTGCC | -0.0781 |

| Sequence | PBM E-score |
| --- | --- |
| CTTATTAC | -0.0999 |
| ACGTATCG | 0.0671 |
| AGCGAGAA | -0.0045 |
| TCAACAGA | -0.103 |
| CGCAGTGC | -0.237 |
| ACGTGCTC | -0.0949 |
| CAGAAGCA | -0.181 |
| ACGGCTCA | -0.0607 |
| ATACTAAC | 0.0458 |
| CCGGTAAG | 0.391 |
| GCGCTCTA | -0.0257 |
| TAACGCGA | 0.0868 |
| GATCGCGA | 0.104 |
| CTGTACAA | -0.0907 |
| TACGGAGA | 0.326 |
| TGACGAAA | -0.12 |
| TATCTAAA | 0.0273 |
| AGATTGTA | -0.243 |
| AAAAAGCC | 0.156 |
| GGTTTCGA | 0.0894 |
| ATGGGGAG | -0.191 |
| CAGGGCAC | -0.0797 |

Reference: the supplement of paper PMC3334620
